Source: the RNAGym collection of RNA variant scans (doi:10.7554/elife.90254)
Read counts are not given, so values of variants with three or more changes are uncertain.

B1: LINE1-full (parent)
chain: UACGUAGGUGGUUUUCCCCUGAUAGUGCUAAGGGGGCCUGGAAGUUUGGACUGGGCAGAGCUCAACACAGCGUGGCAAAGUGGCUGUGGCUAGACUGCCUCUCUGGAUUCCUCGUCACUCAGCAGGGCAUCUCUGAGAGAAAUGCC

Variants of: B1
Experiment: self-cleavage, relative activity (ratio to wild type); higher = more cleavage; in vitro, sequencing; the parent is a self-cleaving ribozyme
A79G U85A U109C A136G gave a self-cleavage of 0.
Work on A79G U85C G139A yielded a self-cleavage of 0.27.
Work on A79G U85C U102C A140U yielded a self-cleavage of 0.
For A79G U85C U104A A136G, the self-cleavage was 0.
In the case of A79G U87C U132C C146U, the self-cleavage is reported as 0.
Variant A79G U91G A136G has a self-cleavage of 0.09.
With A79G U96A G137A the self-cleavage was 0.12.
A79G U102C A124G showed a self-cleavage of 1.15.
A79G U102G A129U gave a self-cleavage of 0.
Variant A79G U108A U112A has a self-cleavage of 1.89.
For A79G U109A U119C, the self-cleavage was 1.36.
Work on A79G U112C U132C yielded a self-cleavage of 0.56.
A79G U112C U134A gave a self-cleavage of 0.37.
A79G U119C U143C showed a self-cleavage of 2.45.
Work on A79G U119G A141G yielded a self-cleavage of 2.3.
In the case of A79G U130A A138G, the self-cleavage is reported as 0.69.
For A79G U130C G135A, the self-cleavage was 0.77.
A79G U130C U143C gave a self-cleavage of 2.45.
Work on A79U A121G A140G yielded a self-cleavage of 1.32.
A79U C120A A140G showed a self-cleavage of 1.53.
With A79U C131U A138G the self-cleavage was 2.26.
A79U G82A A94G A121G gave a self-cleavage of 0.61.
For A79U U81C C118U, the self-cleavage was 0.89.
With A79U U85A U96G U115A A136G U143C the self-cleavage was 0.09.
In the case of A79U U87A A117G U119C, the self-cleavage is reported as 0.07.
Variant A79U U87C A117U U134C has a self-cleavage of 0.13.
Work on A79U U102C A136G A140G yielded a self-cleavage of 0.79.
With A79U U102C G122A the self-cleavage was 1.49.
In the case of A79U U115G A136U, the self-cleavage is reported as 2.18.
In the case of A79U U119G A142G, the self-cleavage is reported as 2.06.
Work on G80A U85A G126U yielded a self-cleavage of 0.14.
With G80A U87C A140U the self-cleavage was 0.2.
Variant G80A U91C A142G has a self-cleavage of 0.62.
G80A U100C A140G gave a self-cleavage of 2.99.
Work on G80A U104C A136G yielded a self-cleavage of 2.88.
With G80A U108A A141G U143C the self-cleavage was 1.69.
G80A U115C A124G showed a self-cleavage of 1.69.
For G80A U115C U119A, the self-cleavage was 2.14.
G80U U104A A136U showed a self-cleavage of 1.64.
G80U U130C A140C showed a self-cleavage of 1.84.
Work on U81A A121C A141G yielded a self-cleavage of 2.92.
U81A A124U A136G showed a self-cleavage of 2.5.
Work on U81A A124U A140G yielded a self-cleavage of 1.66.
Work on U81A A138G A141G yielded a self-cleavage of 1.04.
In the case of U81A G97A A140U, the self-cleavage is reported as 0.21.
In the case of U81A U85A U104A, the self-cleavage is reported as 0.
U81A U85C G127A showed a self-cleavage of 0.18.
Work on U81A U87A A129C A140U yielded a self-cleavage of 0.04.
U81A U91C U130C A140G showed a self-cleavage of 1.18.
U81A U96A A117G gave a self-cleavage of 0.04.
Work on U81A U96A A129U A140G yielded a self-cleavage of 0.06.
U81A U96C C99A gave a self-cleavage of 0.08.
In the case of U81A U100A A141G, the self-cleavage is reported as 2.23.
U81A U104C A140G showed a self-cleavage of 2.82.
U81A U108A A138G gave a self-cleavage of 1.35.
Variant U81A U119C A138G has a self-cleavage of 2.63.
U81A U130C A140G A141U showed a self-cleavage of 1.98.
U81C A124G G125A A142G showed a self-cleavage of 0.47.
In the case of U81C A124U G135A, the self-cleavage is reported as 1.88.
Work on U81C A141G U143C yielded a self-cleavage of 0.92.
U81C C84U U96A gave a self-cleavage of 0.04.
With U81C C90A U132C the self-cleavage was 0.02.
For U81C C101A U115G A129G U143A, the self-cleavage was 1.15.
With U81C C128A A129G C146A the self-cleavage was 0.2.
Work on U81C G88A C146U yielded a self-cleavage of 0.08.
Work on U81C G97A A136G yielded a self-cleavage of 0.21.
U81C G122A G139A showed a self-cleavage of 0.76.
U81C U85C U119C A136U A142G gave a self-cleavage of 0.77.
With U81C U87A U115A the self-cleavage was 0.1.
Variant U81C U87C A121U has a self-cleavage of 1.03.
For U81C U104A U119A, the self-cleavage was 1.15.
U81C U109C A121G A140U gave a self-cleavage of 1.31.
In the case of U81C U130C A136U, the self-cleavage is reported as 0.63.
Work on U81G A94C A141G yielded a self-cleavage of 0.15.
For U81G U87A G144A, the self-cleavage was 0.
Variant U81G U87A U100A has a self-cleavage of 0.43.
For U81G U96C U108C A140G, the self-cleavage was 0.17.
With G82A A92G U102C G125A the self-cleavage was 0.03.
In the case of G82A A94G C145U, the self-cleavage is reported as 0.55.
G82A U87C U91G U109A showed a self-cleavage of 0.08.
Work on G82A U100C A138U A142G yielded a self-cleavage of 2.74.
In the case of G82A U109A U134G, the self-cleavage is reported as 1.61.
G82A U109C U115C showed a self-cleavage of 1.23.
